Measurements reported in the supplement of paper PMC4604168 (melanoma cell lines).
The other results are listed elsewhere or left out. Single values are uncertain, as repeats are few or missing.

tested on: WM451Lu; assay: cell count relative to DMSO control; melanoma cells; higher = more viable cells; details: library dose: low library concentration; 72 h
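Also: cell number obtained by counting DAPI-stained nuclei in high-throughput microscope images with image analysis software, screen run in 1,536-well plates.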

Question: Which cell count does the source give for `Nc1cccc2c1CN(C1CCC(=O)NC1=O)C2=O` (configuration not stated) [lenalidomide] + O=S(=O)(c1ccccc1)N(CC(F)(F)F)c1ccc(C(O)(C(F)(F)F)C(F)(F)F)cc1 [T0901317] (first compound 1 µM, partner dose 1.4 µM) here?
Answer: 76.7%

Question: How did the cell count turn out when `COCC[n+]1c2c(n(Cc3cnccn3)c1C)C(=O)c1ccccc1C2=O` + O=S(=O)(c1ccccc1)N(CC(F)(F)F)c1ccc(C(O)(C(F)(F)F)C(F)(F)F)cc1 [T0901317] (first compound 0.0004 µM, partner dose 1.4 µM) was run?
Answer: 86.3%

Question: `Nc1cccc2c1CN(C1CCC(=O)NC1=O)C2=O` (configuration not stated) [lenalidomide] + NCC(=O)Nc1ccc(-n2nc(C(F)(F)F)cc2-c2ccc3c(ccc4ccccc43)c2)cc1 [OSU03012] (first compound 1 µM, partner dose 1 µM) was tested. Which cell count did it give?
Answer: 71.7%

Question: `Clc1ccc(Nc2nnc(Cc3ccncc3)c3ccccc23)cc1` [vatalanib] + CN(NC(=O)CC(=O)NN(C)C(=S)c1ccccc1)C(=S)c1ccccc1 [STA4783] (first compound 2 µM, partner dose 0.006 µM) was tested. Which cell count did it give?
Answer: 94.1%

Question: For `Clc1ccc(Nc2nnc(Cc3ccncc3)c3ccccc23)cc1` [vatalanib] + C[C@@H]1CCN(C(=O)CC#N)C[C@@H]1N(C)c1ncnc2[nH]ccc12 [CP690550] (first compound 2 µM, partner dose 1 µM), which cell count is on record?
Answer: 80.3%

Question: For `Cn1c(Nc2ccc(C(F)(F)F)cc2)nc2cc(Oc3ccnc(-c4ncc(C(F)(F)F)[nH]4)c3)ccc21` + OCCn1cc(-c2cnc3nnn(Cc4ccc5ncccc5c4)c3n2)cn1 [PF04217903] (first compound 0.08 µM, partner dose 1 µM), which cell count is on record?
Answer: 113%

Question: How did the cell count turn out when `Cn1c(Nc2ccc(C(F)(F)F)cc2)nc2cc(Oc3ccnc(-c4ncc(C(F)(F)F)[nH]4)c3)ccc21` + O=C(Nc1ccccc1)c1cc([N+](=O)[O-])ccc1Cl [GW9662] (first compound 0.08 µM, partner dose 2 µM) was run?
Answer: 128%

Question: With `OCc1c[nH]c2ccccc12` [Indole-3-carbinol] + C=CCn1c(=O)c2cnc(Nc3ccc(N4CCN(C)CC4)cc3)nc2n1-c1cccc(C(C)(C)O)n1 [MK1775] (first compound 0.8 µM, partner dose 0.02 µM) as the molecule, how does the cell count read?
Answer: 111%

Question: For `OCc1c[nH]c2ccccc12` [Indole-3-carbinol] + CN(NC(=O)CC(=O)NN(C)C(=S)c1ccccc1)C(=S)c1ccccc1 [STA4783] (first compound 0.8 µM, partner dose 0.006 µM), which cell count is on record?
Answer: 108%

Question: Which cell count does the source give for `OCc1c[nH]c2ccccc12` [Indole-3-carbinol] + C[C@@H]1CCN(C(=O)CC#N)C[C@@H]1N(C)c1ncnc2[nH]ccc12 [CP690550] (first compound 0.8 µM, partner dose 1 µM) here?
Answer: 89.5%

Question: Which cell count does the source give for `C#Cc1cccc(Nc2ncnc3cc(OCCOC)c(OCCOC)cc23)c1` [erlotinib] + OCCn1cc(-c2cnc3nnn(Cc4ccc5ncccc5c4)c3n2)cn1 [PF04217903] (first compound 0.8 µM, partner dose 1 µM) here?
Answer: 106%

Question: How did the cell count turn out when `COCC[n+]1c2c(n(Cc3cnccn3)c1C)C(=O)c1ccccc1C2=O` + CO[C@@H]1[C@H](N(C)C(=O)c2ccccc2)C[C@H]2O[C@]1(C)n1c3ccccc3c3c4c(c5c6ccccc6n2c5c31)C(=O)NC4 [Midostaurin] (first compound 0.0004 µM, partner dose 0.08 µM) was run?
Answer: 49.9%

Question: With `O=C(CCCCCCC(=O)Nc1ccccc1)NO` [vorinostat] + O=C(O)c1ccc(-c2c[nH]c3ncc(-c4ccccc4)cc23)cc1C1CCCC1 [GSK650394] (first compound 0.08 µM, partner dose 0.16 µM) as the molecule, how does the cell count read?
Answer: 90.1%

Question: `COCC[n+]1c2c(n(Cc3cnccn3)c1C)C(=O)c1ccccc1C2=O` + O=C(Nc1cccc(Cl)c1)Nc1ncc(CCNc2ncnc3ccsc23)s1 [SNS314] (first compound 0.0004 µM, partner dose 0.0008 µM) was tested. Which cell count did it give?
Answer: 40.1%

Question: With `OCc1c[nH]c2ccccc12` [Indole-3-carbinol] + NC(=O)Nc1cc(-c2cccc(F)c2)sc1C(=O)N[C@H]1CCCNC1 [AZD7762] (first compound 0.8 µM, partner dose 0.02 µM) as the molecule, how does the cell count read?
Answer: 78.6%

Question: For `OCc1c[nH]c2ccccc12` [Indole-3-carbinol] + O=C(O)C(=O)Nc1sc2c(c1C(=O)O)CCNC2 [TCS401] (first compound 0.8 µM, partner dose 1.66667 µM), which cell count is on record?
Answer: 108%

Question: With `Clc1ccc(Nc2nnc(Cc3ccncc3)c3ccccc23)cc1` [vatalanib] + NCC(=O)Nc1ccc(-n2nc(C(F)(F)F)cc2-c2ccc3c(ccc4ccccc43)c2)cc1 [OSU03012] (first compound 2 µM, partner dose 1 µM) as the molecule, how does the cell count read?
Answer: 61.8%
